Results reported in the RNAGym collection of RNA variant scans (doi:10.7554/elife.90254).
Read counts are not given, so values of variants with three or more changes are uncertain.

B1: LINE1-mini (parent)
chain: GGCAGAGCUCAACACAGCGUGGCAAAGUGGCUGUGGCUAGACUGCC

Variants of: B1
Assay: self-cleavage, relative activity (ratio to wild type); higher = more cleavage; in vitro, sequencing; the parent is a self-cleaving ribozyme

| Variant | self-cleavage |
| --- | --- |
| GCCAGAGCUCAACACACCGUGUCAAAGUGGCUAUGGCUGGACUGCC | 0.07 |
| GCCAGAGCUCAACACAACGUGGCAAAGUGGCUGUAGCUAGGCUGCC | 0 |
| GCCAGAACUCCGAACAGCGUGGCAAAGGGGCUGUGGCUAGACUGCC | 0.04 |
| GCCAGAGCUCAACACAGCGUGGCAAAGUGGCUGUGGGUAGACUGCA | 0.01 |
| GCCAGAGCUCAACACAGCGUGGCAAAGUGGUUGUGGCUAGAGAGCC | 0.02 |
| GCCAAAGGUCAACACAGCGUGGCAAAGUGGCUGCGGCUAGACUGCC | 0.04 |
| GCCAGAGCUCAACACAGUGAGGCAAAGUGGCUGUGGCUAGACUGCC | 0.09 |
| GCCAGAGCUCAACACACCGUGGCAAAGUGGAUGUGGCUAGACUGCC | 0.25 |
| GCCAGAGCUCAACACAGCGUGGCAAAGUGGCUGUGGGUAGGCUGCC | 0.01 |
| GCCAGAACUCAACACAGCCUGGCAAAGUGGCUGUGGCUAGACUGCC | 0.11 |
| GCCAGAGCUCAACACAGUCUGGCAAAGUGGCUGUGGCUAGACUGCC | 0.02 |
| GCCAGAACUCAACACAGCGUGGCAAAGUGGCGGUGGCUAGACUGCC | 0.08 |
| GCCAGAGCUCAACACAGCGUGGCAAAGUGGAUGUGGAUAGACUGCC | 0.04 |
| GCCAGAGCUCAACACAUCGUGUCAAAGUUCCUGUGGAUAGACUGCC | 0.09 |
| GCCAGAGCUCAACACAGCGUGGUAAAGUGGCUGUGGCAAGACUGCC | 0.44 |
| GCCAGAGCUCAACACAGCGUGGCAAAGUGGCUGUGGUUAAACUGCC | 0.42 |
| GCCAGACAUCAACACAGCGUGGCAAAGUGGCUGUGGCUAGACUACC | 0.05 |
| GCCAGACCCCAACACAGCGUGGCAAAGUGGCUGUGGCUAGACUGCC | 0.01 |
| GCCAUAGCCCAACACAGCGUGGCAAGGUGGCUGUGGCUAGACUGCC | 0.02 |

| Variant | self-cleavage |
| --- | --- |
| GCCAUAGCUCAACACAGCGUGGCAAAGUGGCAGUGGCUAGACUGUC | 0.01 |
| GCCAGAGCUCAACACAGCAUGGCAAAGUGGCUCUUGCUAGACUGGC | 0.03 |
| GCCAUAGCUAAACUCAGCGUGGCAAAGUGGCUGUGACUACACUGCC | 0.01 |
| GCCACAGCUCAACACAGCGUGGCAAAGUGGCUGUGGCUAGUCUGCC | 0.05 |
| GCCAGACCUCAACACAGCGUGGCAAAGUGGCGGUGGCUAGACUGCC | 0.03 |
| GCCAAAGCUCAACACAGCGUGGCACCGUGGCUGUGGCUAGACUGCC | 0.03 |
| GCCACAGCUCAACACAGCGUGUCUAAGUGGCUGUGGCUUGACUUCC | 0.02 |
| GCCACAUCUCAACACAGCGUGGCAGAGUGGCUGUGGUUAGACUGCC | 0.03 |
| GCCAGACCUAAGCACAGCGUGGCAAAGAGGCUGUGGCUAGACUGCC | 0.02 |
| GCCAGAGCUCAACACAGCAUGGCAAAGUGGCUGUGGCUAGACUGGU | 0.09 |
| GCCAGAGCUCAACACAGCAUGACAAAGUGGCUGUGGCUAGACUGCC | 0.63 |
| GCCAGAUCUCAACACAGCGAGGCAAAGUGGCUGUGGCUAGACUGCC | 0.18 |
| GCCAGAAAUCAGCACAGCGUGGCAAAGUGGCUGUGGCUCGAAUGCC | 0.08 |
| GCCAGAGCUCAACACAGCGUGGAAAAGUGGCUGUGGCUCGUCUGCC | 0.11 |
| GCCAUAGCUCAACACAGCGUGGUAAAGUGGCUGUGGCUAAACUGCC | 0.04 |
| GCCAUAGCUCAACACAGGGUGGCAAAGUUGCUGUGGUUAGACUGCC | 0.01 |
| GCCAGAACUUAACACAGCGUGGCAAAGUGGCUGUGGCUAGACUGCC | 0.02 |
| GCCAGAGCUCAACACAGCAUGGCAAAGUGGCUGUGGCCAGACUGCC | 0.22 |
| GCCAUAACUUAACACAACGUGGCAAAGUGGCUGUGGCUAGACUGCC | 0.03 |

| Variant | self-cleavage |
| --- | --- |
| GCCACAGUUCAACACAGCGUGGCAAAGUGGCUGUGGCUAGACUGCC | 0.03 |
| GCCAGAGCUCAACACAGCGUGGCAAAGUGGUUGUGGCUAGACUGAC | 0.03 |
| GCCAAAGCUCAACACAGCGUGGCAAAGUGUAUGUGGCUAGCUUGCC | 0.04 |
| GCCAGAGCUCAACACAGCGUGGUAAAAUGGCUGUGGAUAGACUGCA | 0.03 |
| GCCAAAGCUAAACACAUCGUGGCAAAGUGGCUGCGGCUAGACUGCC | 0.01 |
| GCCAGACCUCAUCACAGCGUGGCAAAGUCGCUGUGGCUAGUUUGCC | 0.11 |
| GCCAGAGCUCAACACAGCGUGGCAAAGUGGUUGUUGCUACACUGCC | 0.02 |
| GCCAGAUCCCAACACAGCGUGGCAAAGUGGCUGUCGCUAGACUGCC | 0.06 |
| GCCAAAGCUCAACACAGUGUGGCAAAGUGGCUGUGGCGAGACUGCC | 0.02 |
| GCCAGAUCUCAACGCAGCGUGGCAAAGUGGCUGUUGCUAGACUGCC | 0.7 |
| GCCAAAGCUCAACACAGCGUGGCAAAGUGGCUGUGGCUAGGCUGCC | 0.05 |
| GCCACAGCUGAACACAGCGUGGCCAAGUGGCUGUCGCUAAACUGCC | 0.01 |
| GCCAGAUCUAAACAAAGCGUGGGAAAGUGGCUGUGGCUAGACUGCC | 0.02 |
| GCCAGAGCUCAACACAGCGUGGCAAAGUGGGUCUGGCUAGACUGCC | 0.01 |
| GCCAGAGCUCAACACAACGUGGCAAAGUGGCUCUGGCUAGACUGCC | 0.02 |
| GCCAGAUCUCAACACAGCGUGGCAAAGUGGAUGUGGCUAGACUGCC | 0.08 |
| GCCAUAGCUCAACACAGCGUGGCAAAGUGGCUGUGUCUAGACUGCC | 0.03 |
| GCCAGAUCUCAUCACAGCGUGGCAAAGUGUCUGUGGCUAGCCUGCC | 0.11 |
